Results as given in publication PMC4336329 (PLoS ONE, 2015).
Screen size: about 310,000 compounds; about 2,200 (0.71%) showed an effect of 50% or more. Effects have a minus sign here. Some of the results follow.

Molecular target: human ether-à-go-go-related gene (hERG) potassium channel (human, UniProt Q12809)
Assay: primary screen, population patch clamp on CHO cells stably expressing hERG

Chain of human ether-à-go-go-related gene (hERG) potassium channel (Q12809 whole entry, looked up): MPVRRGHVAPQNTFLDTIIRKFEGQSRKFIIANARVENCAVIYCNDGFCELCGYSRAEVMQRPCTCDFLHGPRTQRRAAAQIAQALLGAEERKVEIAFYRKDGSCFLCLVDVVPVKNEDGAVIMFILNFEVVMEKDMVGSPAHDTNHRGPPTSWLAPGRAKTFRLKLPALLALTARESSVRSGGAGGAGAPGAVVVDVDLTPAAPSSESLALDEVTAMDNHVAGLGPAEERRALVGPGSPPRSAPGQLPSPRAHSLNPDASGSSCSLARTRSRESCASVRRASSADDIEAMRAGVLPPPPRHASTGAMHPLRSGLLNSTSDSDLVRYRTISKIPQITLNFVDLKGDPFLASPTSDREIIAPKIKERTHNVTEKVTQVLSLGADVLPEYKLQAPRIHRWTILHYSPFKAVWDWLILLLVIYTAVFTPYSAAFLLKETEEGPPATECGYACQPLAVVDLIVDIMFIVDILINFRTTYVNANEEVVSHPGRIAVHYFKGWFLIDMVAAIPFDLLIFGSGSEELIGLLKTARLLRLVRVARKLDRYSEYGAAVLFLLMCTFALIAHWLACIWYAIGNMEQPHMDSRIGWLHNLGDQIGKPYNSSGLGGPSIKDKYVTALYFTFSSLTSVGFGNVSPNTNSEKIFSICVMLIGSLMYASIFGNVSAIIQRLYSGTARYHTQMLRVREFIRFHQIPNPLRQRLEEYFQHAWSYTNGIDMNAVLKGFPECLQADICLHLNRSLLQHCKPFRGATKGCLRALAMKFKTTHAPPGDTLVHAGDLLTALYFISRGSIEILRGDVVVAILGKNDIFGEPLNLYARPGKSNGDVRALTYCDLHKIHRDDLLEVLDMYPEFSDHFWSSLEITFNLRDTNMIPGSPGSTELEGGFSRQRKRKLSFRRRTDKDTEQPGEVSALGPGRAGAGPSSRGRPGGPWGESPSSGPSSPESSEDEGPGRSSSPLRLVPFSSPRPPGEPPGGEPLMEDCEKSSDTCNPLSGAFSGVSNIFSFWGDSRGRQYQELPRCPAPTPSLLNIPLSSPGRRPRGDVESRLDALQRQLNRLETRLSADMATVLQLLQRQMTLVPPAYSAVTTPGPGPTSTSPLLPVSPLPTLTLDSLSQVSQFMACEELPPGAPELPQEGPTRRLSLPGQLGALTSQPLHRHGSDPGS

| Structure (SMILES) | hERG current change (%, negative = inhibition) at 1uM |
| --- | --- |
| COc1cc2c(cc1OC)CN(C(=O)CSc1nnc3scc(-c4ccccc4)n13)CC2 | 5.24% |
| COc1ccccc1CNS(=O)(=O)c1cc(C)ccc1OC | 12.8% |
| C=CCS/C(=N\n1cnc2ccccc2c1=O)N(CC)CC | 14.2% |
| CC1Cc2ccccc2N1C(=O)C1CCN(S(=O)(=O)c2cccs2)CC1 (stereo not drawn) | 4.23% |
| CCN1C(=NCCN2CCOCC2)N[C@@H](c2ccccc2)C(C(=O)OC)=C1C | 12.2% |
| CCn1c(COC(=O)CNC(=O)c2cc(OC)c(OC)c(OC)c2)nc2cc(S(=O)(=O)N(C)C)ccc21 | 6.22% |
| O=C(O)CCCC(=O)N1CCN(c2nc(-c3ccccc3Cl)c3cc(Br)ccc3n2)CC1 | 6.08% |
| O=C(CNC(=O)c1cccs1)N/N=C/c1ccco1 | 16.5% |
| COc1cc(N=C(N)N=C(N)N)cc(OC)c1 | 11.1% |
| Cc1ccc2c(N)[nH]nc2n1 | 16.8% |
| COc1ccc(OC)c(N2CC(O)=C(c3nc4ccccc4s3)C2=N)c1 | 1.8% |
| Cc1nnc(NC(=O)c2ccc(Br)cc2)s1 | 12% |
| Cc1cc(C(F)(F)F)nn1CC(=O)NCc1cccs1 | 11.8% |
| CCc1cccc(NC(=O)COC(=O)/C=C/c2cccs2)c1 | 11.6% |
| CC(C)OCC(O)Cn1c(N2CCCC2)nc2c1c(=O)[nH]c(=O)n2C (stereo not drawn) | 13.8% |
| CCN(C(=O)CSc1nnc(C)n1-c1cccc(C)c1)C1CCS(=O)(=O)C1 (stereo not drawn) | 2.88% |
| c1ccc2c(c1)nc(N1CCOCC1)c1ccccc12 | 4.22% |
| O=S(=O)(Nc1ccc(N2CCOCC2)cc1)c1ccc(Cl)s1 | 8.98% |
| NS(=O)(=O)c1ccc(NC(=O)/C=C/c2ccccc2[N+](=O)[O-])cc1 | 8.51% |

| Structure (SMILES) | hERG current change (%, negative = inhibition) at 1uM |
| --- | --- |
| CC(=O)c1cccc(Nc2nc(-c3ccccc3)nc3ccccc23)c1.Cl | 10.1% |
| Cc1ccc2c(c1)N(CC(=O)NC(C)CCc1ccccc1)C(=O)c1cccnc1O2 (stereo not drawn) | -8.28% |
| CCOc1ccc(-n2c(Cc3cc(=O)[nH]c(=O)[nH]3)nnc2SCC(=O)OC)cc1 | 8.93% |
| COc1ccc(NC(=O)c2ccc(N3C(=O)C4CC=C(Cl)CC4C3=O)cc2)cc1 (stereo not drawn) | 18% |
| Cc1ccc(Oc2nnc(-c3cccs3)c3ccccc23)cc1 | -0.176% |
| COc1ccccc1NC(=O)Nc1ccnn1C1CCN(C(=O)c2cscn2)CC1 | 8.26% |
| CC(C)COc1ccc(S(=O)(=O)NNC(=O)c2cc3ccccc3o2)cc1 | -5.87% |
| Cc1cc(NC(=O)CSc2nnc(-c3cccnc3)n2C2CCCCC2C)no1 (stereo not drawn) | 14.2% |
| CCc1ccc(NC(=O)C(CC)c2ccccc2)cc1 (stereo not drawn) | 9.84% |
| Oc1ccccc1C1CC(c2cccs2)=NC(c2cccc(Br)c2)N1 (stereo not drawn) | 13.6% |
| Cc1cc(C)n(-c2ccc(C(=O)N3CCN(c4ccccn4)CC3)cc2)n1 | 2.43% |
| N#C/C(=C\c1ccc(N2CCOCC2)o1)C(=O)N1CCOCC1 | -1.16% |
| COc1ccc(OCC(=O)Nc2ccc(S(=O)(=O)N3CCCCC3)cc2)cc1 | -16% |
| COc1cc(NC(C)=O)c2ncccc2c1NC(C)=O | 10.3% |
| Cc1ccc(Cl)c2c1NC(=O)C2(O)CC(=O)c1ccccc1O (stereo not drawn) | 10.8% |
| Cc1cc(NC(=O)CCN2CCCCC2)ccc1Br | 1.26% |
| O=C(N/N=C/c1c[nH]c2ccccc12)c1sc2ccccc2c1Cl | 7.74% |
| CC1CCCCC1NC(=O)C1CCN(C(=O)c2sccc2-n2cccc2)CC1 (stereo not drawn) | -0.621% |
| CN(C)c1ccc(/C=N/NC(=S)NCc2ccccc2)cc1 | -1.32% |

| Structure (SMILES) | hERG current change (%, negative = inhibition) at 1uM |
| --- | --- |
| COC(=O)c1ccc(NC(c2ccc(Cl)cc2)P(=O)(OC)OC)cc1 (stereo not drawn) | 3.71% |
| CCc1ccc(CCC(=O)Nc2nnc(CC)s2)o1 | 6.1% |
| COC(=O)c1ccc(C(C(=O)NC2CCCCC2)N(Cc2ccc(F)cc2)C(=O)Cc2cccs2)cc1 (stereo not drawn) | 11% |
| CCN(C(=O)COC(=O)c1c(C)c(-c2ccccc2)nc2ccccc12)C1CCS(=O)(=O)C1 (stereo not drawn) | 6.71% |
| O=C(NCCNC(=O)c1ccc(Cl)cc1Cl)c1ccccn1 | 10.8% |
| O=C(O)c1ccc(-c2nnn(Cc3cccc(C(F)(F)F)c3)n2)cc1 | 4.83% |
| Cc1ccc(S(=O)(=O)NCC(=O)N(CC(=O)NCC2CCCO2)Cc2ccccc2)cc1 (stereo not drawn) | -1.01% |
| CN1C(C(=O)Nc2ccc(F)cc2F)=CC(c2cccs2)=NS1(=O)=O | 11.6% |
| O=C(NC(NC1CCS(=O)(=O)C1)C(Cl)(Cl)Cl)c1ccc(Br)cc1 (stereo not drawn) | -10.3% |
| COc1ccc(C(=O)NCC(=O)OCC(=O)Nc2cc(OC)ccc2OC)cc1 | 11.1% |
| COc1cccc(C(=O)OCC(=O)Nc2ccccc2N2CCOCC2)c1 | 4.76% |
| CSc1nc2ccccc2cc1/C=C(\C#N)c1cccc(C)c1 | 7.9% |
| Cc1c(C)c2ccc(OCC(=O)NCc3ccccn3)cc2oc1=O | 7.43% |
| O=C(Nc1n[nH]c(=S)s1)c1ccc2ccccc2c1 | 17.5% |
| Cc1onc(-c2ccccc2)c1C(=O)Nc1ccc(OC(C)C)cc1 | -6.66% |
| COc1ccc(S(=O)(=O)CCc2nnc(NC(=O)c3cccs3)s2)cc1 | 13.1% |
| O=C(N/N=C/C(c1ccccc1)c1ccccc1)c1ccccc1F | 10.3% |
| O=C(CCn1c(=O)c2ccccc2n(CC(=O)NC2CCCC2)c1=O)NCCc1ccc(Cl)cc1 | 10.5% |
| COc1ccc(-c2cn[nH]c2C)cc1 | 10.9% |
